# Assay results published in the supplement of paper PMC11417369.
# Some of the results follow.
# Test system: PfHDP1 homeodomain (GST-tagged)
# Experiment: gcPBM binding intensity (ln(normalized median fluorescence intensity)); higher = stronger DNA binding
# In short: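 An Agilent 4 × 180k array carrying primer-extended double-stranded 36-bp intergenic genomic probes and negative controls received GST-tagged P. falciparum DNA-binding domains expressed in E. coli, about 25 μg on average, for 1 h. The binding buffer contained 1× PBS, 1% milk, 0.2 mg/ml BSA, 0.5% salmon testes DNA and 0.03% Triton X-100. Binding intensity is the top Masliner-normalised natural-log median intensity across replicate spots of either probe orientation, read after Alexa488 anti-GST antibody staining and a 488 nm scan.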
row,Sequence,gcPBM binding intensity (ln)
1,TATGGAAGAAAATATACACACAAAAAAAAAAAATGG [CACACA_site4924],6.94
2,AACACTCAAAAAAATTTAAATAAAAAAAAAAAAAAA [CACACA_negctrl_site680],6.32
3,TATGAATGCTTTTATGCACACGTACAAAAATATTAT [CACACA_site8851],9.99
4,ATATGTTAAAAATTCACACAAAAAAGTATACAGATA [CACACA_site4179],6.8
5,AAAAAATTAAATAATTACAAAAAAATAAAATAAAAA [GTGCAC_negctrl_site638],6.44
6,CCAACATATATTATCACACACATATATATATATATA [CACACA_site2016],9.3
7,ATATTAGATTAATTTACACACAGAAAATGAGATTTT [CACACA_site541],6.23
8,AATAAACAAATATGTACACACATATACCTATAAATA [CACACA_site7358],6.43
9,TAGAGTATATATAAATGTACATATTTTATGCTAATT [XGTACX_site7821],6.64
10,ATGTTTACATATTAGGGTACATAATAAATTGCATAT [XGTACX_site6712],7.18
11,TTTTAAACAAGACACACACACATATATATATATATA [CACACA_site925],9.39
12,TTATTGTAAATATATGCATGTGCAAAATGAAAAAAA [TGCATGCA_site399],10.5
13,GAATGTATAAAATGAACACACGCCAAATTAAATGAA [CACACA_site3044],6.39
14,CATGTATTTTATATTACACACTAATATTATATATAT [CACACA_site1508],6.76
15,AAAAATAATGCACATATATATAATATGTATATGTAT [CACACA_negctrl_site443],11.1
16,ATAATTATAAAATAAACACACATATATATTTATATG [CACACA_site440],6.29
17,ATTATGTTATATATATGTACATATATAATGTTCATA [XGTACX_site6184],6.48
18,AATAAATAAACAAATTAACACACAGAATTTTTTTTT [CACACA_site8485],6.35
19,ATAAAATAAAAAAGTAGTACACACTTCACGATATTT [XGTACX_site8289],6.39
20,AAACAATACATATATTGTACATATATTATATTATAT [XGTACX_site8136],6.4
21,AAAAAATCAAAACACACACACACACCCAAAAAAAAA [CACACA_site1444],6.72
22,CGGATCTATAAGTGTACACAATCTAGCGAAAAGTTT [CACACA_site4932],6.41

row,Sequence,gcPBM binding intensity (ln)
1,AATTTGAAATAAAGTAGTACAGTATATAAAAATATA [XGTACX_site128],6.42
2,TTAGAAATTCATTTTACACACAATTCAAAAGAATGT [CACACA_site2104],6.08
3,ATAATGATTATAATATGTACATAAATATATATATTA [XGTACX_site5029],6.64
4,TATATATCTATATTTACACACAGTTACTATGTAGAT [CACACA_site7532],6.27
5,ATAATATGTATAATCACACATTTTTCTTTTAAGACA [CACACA_site5297],6.07
6,GTTAAACTTAATATCGGTACACACACAAGATAAGAA [XGTACX_site1660],6.97
7,ACCATATAAATAAACACACACACACCCATATATATA [CACACA_site2321],6.98
8,AAATATATTATATTTAGTACGCATATATAATATGCA [XGTACX_site4835],6.07
9,ATGAAAATTTATATTGCACACATAGGGAATAAAAAA [CACACA_site8667],10.4
10,AGTTAATTAATAGGCACACATATATATGTATAAATA [CACACA_site523],6.97
11,TAAAATATCATAGATAGTACATATAACGTTTTATAT [XGTACX_site5666],6.16
12,ATCGAAATTTTAGAATATATATGATGTTACTTAAGT [GTGCAC_negctrl_site611],6.29
13,CATGACATAAAAAATATACACACTATAATATATATA [CACACA_site1402],6.85
14,GTGGCTACTATATATTGTACGATATTATATATATAC [XGTACX_site8376],6.79
15,AGAATAAGAATTATTAGTACTTATAAATATTATATT [XGTACX_site7228],6.04
16,GTAAATACACATATGTGTACATATATATATATATAT [XGTACX_site3696],9.3
17,CTATTACATTAAATGTGTACATATATATATATATAT [XGTACX_site5233],9.41
18,TAATTTAAAATATATAGTACACACGTGAACACAAAT [XGTACX_site792],6.99
19,GGTTCATTAAAGTGTACACATAAATACCGTAACATT [CACACA_site6002],7
20,CTAAGGTATGATTAATCACACACATAAATATATATA [CACACA_site8847],6.82
21,GGAATAAAGACAGCACGTACATATCTTACGAAGCTC [XGTACX_site3918],6.13
22,CACAAGAAAATTCACACACACACATATATATATATA [CACACA_site3880],9.21

row,Sequence,gcPBM binding intensity (ln)
1,TCCTTAATTCAAAAAATAATATCTTATATTTCAAAT [CACACA_negctrl_site1592],5.9
2,TCATCATGTATGTACACACATACATATATTATGTAC [CACACA_site1386],6.37
3,TATAAGTAGATAAGGGTGCACAATATAAATATATAG,9.19
4,CTTTTTGAAATATTAACACACATTTTGTTAATGAAT [CACACA_site6087],6.28
5,ATATTAATTTCTCATGCATGTTCTTCCCAATTGTAA [TGCATGCA_site425],7.02
6,GGTTAGACGAAATATACATGCAATGGAAAATAAGTT [TGCATGCA_site23],7.07
7,ATTTTTATTAGTTATTGTACTTATTATTTATTAATT [XGTACX_site2568],6.52
8,TATAGATATATACGGTGTACATACATAAAAAAAAAA [XGTACX_site1648],6.44
9,TATAAAGAAATCATTACACACAAATAAATACATACA [CACACA_site2675],6.89
10,TATAGTCAACTAGTCACACATATAATTATATATATA [CACACA_site5872],7.45
11,ATATATATACATATAACACACACATATATATATATA [CACACA_site8827],9.18
12,TAATTCACATTTTATACACACATTCGAACCTTTTTT [CACACA_site3341],6.88
13,TTGTATTTATTTATGGGAGGATTATAATCATTGTAG [GTGCAC_negctrl_site268],6.76
14,TGAAATAAAATTTGTACACACATATTTATTTATATA [CACACA_site6421],6.27
15,TGCATTATATTAAATTTTTTATTTGTTGATGTTATA [GTGCAC_negctrl_site371],6.23
16,AAATAAAAGATATTTTTACACACTTTTGATGAGATC [CACACA_site9000],6.24
17,TATTTTTTTTGTCATATATAAGAAACGCTCTTCTTT [TGCATGCA_negctrl_site127],6.5
18,ATATTTATATTTTCATGTACGTATTTTTATATATAT [XGTACX_site8478],6.73
19,AATTATATATTATAATGTACATATATATAACTATAC [XGTACX_site1865],6.23
20,ATAAAGGAAATTACAAGTACAAATAAGATAAAATAA [XGTACX_site4514],6.61
21,AAAGAAATGAAATATACACACATACATAAATACATA [CACACA_site6081],6.68
22,TATAAAAAAAGAGGAGGGATGGTATACTTGTGGTTT [TGCATGCA_negctrl_site49],6.32

row,Sequence,gcPBM binding intensity (ln)
1,ATATATTTAAACTACACACGCATATCTTAGAAATAA [CACACA_site1272],6.44
2,ATAGACAGCGCACAAACACACAAACACAGACCCCCA [CACACA_site4409],7.41
3,TTTTTTTTATGGTACACACACGCGTATGGTTGCACG [CACACA_site1877],7.45
4,TTATTTTTGTTCATAGTGCATAGAATTTATACATAT,7.93
5,TTGTAAATTTCTGGTTATATATTTTATGTATATGTT [CACACA_negctrl_site1443],6.6
6,TTTTTTTCTTTTCAAACACACAATTGGTATATATCA [CACACA_site7542],6.48
7,ATTTATTTATTGGCACGTACAAATTTGTGTTTTCCA [XGTACX_site6978],7.02
8,AATAAAAAGGAACACACACACACACGGATATAAATA [CACACA_site7658],7.15
9,TATTTTACATCTTCTCACATTTTATCACTTTTTAAA [CACACA_negctrl_site330],6.69
10,TCATAGTATAGACACACACACACACGCATATAAATA [CACACA_site6915],6.91
11,TCTTTGTAAATTTCTTGTACGTAAATTTTTTTTAGG [XGTACX_site7062],6.68
12,TGTATATATAAACATGCACACGTGGTTGTATATATA [CACACA_site9078],8.31
13,AATATTTTAAAAAAAAGTACATTATATATATATGTT [XGTACX_site8073],6.19
14,TGTAGTCTGGAGAAGAGTACACAGTATCTGGTAACA [XGTACX_site2038],5.83
15,TAGTATTAAAATATTTGTACTTATATGTATTATATA [XGTACX_site538],6.1
16,AGAATTCGTTTAAAAAGTACATTCAATTTAATAATG [XGTACX_site6603],5.9
17,AGAATATGTTAAAAAAGTACATACTCTTTATATACG [XGTACX_site79],6.18
18,TAAAAAAAAACATATACACACAAAAACGTACACATA [CACACA_site1354],6.84
19,TTTTTTTCTCACAATCGTACATAAATACATATATAT [XGTACX_site3150],6.71
20,TATATTTTTTAAACCACACACAATATAGAGTAGAAT [CACACA_site613],6.91
21,TAATGTACATAAACCGCACACATATAAAAAAATAAA [CACACA_site2851],6.79
22,AGGGGAAATAAAATATAAATTATCATATATATATAT [XGTACX_negctrl_site366],9.07
